In paper PMC12136788 one finds binding signal data, which are given here for six molecules.

First the molecules themselves.
T1: UNK ZnF1-3 (human, UniProt Q9C0B0 31-174)
T1 sequence: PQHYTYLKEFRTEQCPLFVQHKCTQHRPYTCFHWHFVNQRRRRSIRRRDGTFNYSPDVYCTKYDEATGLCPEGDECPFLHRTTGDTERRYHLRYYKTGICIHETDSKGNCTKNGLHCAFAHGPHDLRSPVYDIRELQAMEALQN

B1: chr17:46686077:46686078:-_ENSMUSG00000015605_ENSMUST00000015749|mus_mus|FALSE|FALSE (ssRNA)
RNA: GGGAGUUCUACAGUCCGACGAUCACGGGCGGAUCAUUCACUCUUGGUGCUGUGGGUGGCAUCCAGGUUCACCACCUGUAGCUCGGUGAGGUUGCUGCUGCUCCCAGCUUGCUGCCCUAUCACAGCCAUCUGGUGAAGCUGAACCAACAGAGGAUUGAGCAUCA
B2: 22945114_22947032_1436_CDS_ENSG00000068793_ENST00000560848|human|control|control (ssRNA)
RNA: GGGAGUUCUACAGUCCGACGAUCGUACUCUUCAGCGCUGUCGGGGCAGUCCUUGUUGGAGUACUUGUCGGUGGGGUGCACAAGCUUCCAGGAAUACACUUCCAUCACGUGCGCGCUCCACUGCGACAACAGCUGCAGGCCCUGCAACAGAGGAUUGAGCAUCA
B3: chr15:84030238:84030239:+_ENSMUSG00000022437_ENSMUST00000023071|mus_hu|FALSE|FALSE (ssRNA)
RNA: GGGAGUUCUACAGUCCGACGAUCGUUUCCAACCAUGGUGUUAUAACUGCCCGUUAAUCUCCUCAAUUCAGUUACUUCAAAGGUAACGUCUAACCCAUUUGGAAGUGCGUCAUCACCUUGACAUGUGUCAAUCAAAACAUCCACCAACAGAGGAUUGAGCAUCA
B4: chr17:64801638:64801639:+_ENSG00000154229_ENST00000413366|hu_mus|hu_hu_hu_mus_False|18_78 (ssRNA)
RNA: GGGAGUUCUACAGUCCGACGAUCUAUAUAUAUAUAUACAUAUGUACACAUAUAUAGUAAGAGCCUAGUUAAACGUGUAAAGUAGCCAUUCAUUUUUAAAAUUACAUCUACAUUAAAAAAGUAAUCUAUCUGAUAGAGUGCCAGCAACAGAGGAUUGAGCAUCA
B5: chr7:66561770:66561771:+_ENSMUSG00000025326_ENSMUST00000107537|mus_mus|FALSE|FALSE (ssRNA)
RNA: GGGAGUUCUACAGUCCGACGAUCUUAGCAUUACAGUAAAUAAGAGCUCUGUCUCAACUACUACAAGAAAGAAAAUAAUCCUAAGACAUCCUUUUCCCCUUCCAAUGAUUUGAAAGCUACCAUUAUCCCCUGCCAAUUAAAAUCCAACAGAGGAUUGAGCAUCA
B6: chr14:89307221:89307222:+_ENSG00000165533_ENST00000346301|hu_mus|hu_hu_hu_mus_False|68_98 (ssRNA)
RNA: GGGAGUUCUACAGUCCGACGAUCUCCUGUUUGGUUAGUUCCAGGGAGCUUCAAAGAUGUGCCAGGGCGUGGAACUUGAGCAAUAGCAUUUUCAUCCAGGAUCAUUUCAGCAAUUCCUUCCUGGUCCACAUCAAUUUCAUCUAUCAACAGAGGAUUGAGCAUCA

Some of the results follow.

In the experiment the target is T1, UNK ZnF1-3. Briefly: nsRBNS (natural sequence RNA bind-n-seq); RBNS binding buffer (assumed for nsRBNS): 25 mM Tris pH 7.5, 150 mM KCl, 3 mM MgCl2, 0.01% Triton X-100, 500 ug/ml BSA, 20 U/ml SUPERase-In, 4 C; UNK is unkempt and MSI1 is Musashi-1; names of the RNAs are library labels; protein concentration not given here; high values mean tight binding.
Molecule B1 came in with a binding signal of 0.512 enrichment R.
As for B2, the binding signal is 0.525 enrichment R.
Consider B3, for which the binding signal amounted to 0.891 enrichment R.
For B4, the binding signal was found to be 1.48 enrichment R.
B5 yielded a binding signal of 1.44 enrichment R.
For B6, the binding signal was determined as 0.796 enrichment R.
